The results in this text go back to article PMC12136788.

This is one part of the list.

The chains are these.
T1: UNK ZnF1-3 (human, UniProt Q9C0B0 31-174)
T1 sequence: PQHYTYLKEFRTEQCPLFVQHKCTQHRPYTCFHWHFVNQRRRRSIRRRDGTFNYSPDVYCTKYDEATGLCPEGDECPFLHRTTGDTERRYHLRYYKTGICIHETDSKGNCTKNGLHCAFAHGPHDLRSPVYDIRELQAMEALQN

B1: 63948079_63948331_9973_CDS_ENSG00000103657_ENST00000443617|human|control|control (ssRNA)
RNA: GGGAGUUCUACAGUCCGACGAUCGCUGGGUAGAAACUUUCGCUGAAUUGAGUCAUCAACUGUGGUUAGAUUUACACCUGUUGCAGCAGAAAUCAAGUUCUGUGUACACAACUGUACAAGCAGUUUGGCAGCACUAGGAGCAUUCAACAGAGGAUUGAGCAUCA
B2: chr3:185641624:185641625:-_ENSG00000136527_ENST00000456380|hu_mus|FALSE|FALSE (ssRNA)
RNA: GGGAGUUCUACAGUCCGACGAUCGGCACGUUCUUUAGCUUCCUUGGCAUCGUCUACAUUUUCAAAAUAUACAAAGGCAAAUCCUCUUGAACGUCUAGAUUGCUGGUCAUAUACAAUAGACACAUCAGCAAUGGGGCCAUAUUUCAACAGAGGAUUGAGCAUCA
B3: chr4:21803547:21803548:+_ENSMUSG00000028248_ENSMUST00000098238|mus_hu|FALSE|FALSE (ssRNA)
RNA: GGGAGUUCUACAGUCCGACGAUCCACUUCAAGAUUGAUCUAAAAAACAUUUUAAGAUAUGAAAAUGUUAUACAACUUAUCUAUUACAAAUUAAUCAGAUAAUUCUGCAAUUAGGUACACUGUGUUAGCUCGCCUACAUAAAAACAACAGAGGAUUGAGCAUCA
B4: 47371245_47371365_62_5pUTR_ENSG00000139684_ENST00000378720|human|control|control (ssRNA)
RNA: GGGAGUUCUACAGUCCGACGAUCUGGCGGAGUGACCAGAAGAAGCGGGCCGAAGUAAAAGGCGGGGCUCAAGAUGGCCGCCGGGGCCUCGCCUCAGCCCCGCCCAUAUGAUGCCCCGCCCCUCCGGUCCCACUCACUCUCGCUCAACAGAGGAUUGAGCAUCA
B5: chr5:3590733:3590734:-_ENSMUSG00000040302_ENSMUST00000042753|mus_mus|FALSE|FALSE (ssRNA)
RNA: GGGAGUUCUACAGUCCGACGAUCAGGACUCUCAGGAGAUGUGUUUAAAGCAGCUGUACCAAAUCCAGGCAUAGGUGGAUGGAAACCUUGUCUAGAAUCUUUUGUUCCUUUCUGCUCUGGAACUGGUUUCUUCUUCGCCAUGUACAACAGAGGAUUGAGCAUCA
B6: chr13:74460350:74460351:-_ENSMUSG00000021577_ENSMUST00000022062|mus_mus|FALSE|FALSE (ssRNA)
RNA: GGGAGUUCUACAGUCCGACGAUCCACUGCACAAGAAUAAAGAGACAAAGUCUGGCGCAACUCAAUCCCUUACAGCAAGUACUACCAAGCUGUUGAUCACAAUCUAUGAAGUGACUCCUUGUUCAUGAGAGCAGAAUUUUACCACAACAGAGGAUUGAGCAUCA
B7: chr18:48447474:48447475:+_ENSG00000082212_ENST00000321341|hu_hu|motif|central (ssRNA)
RNA: GGGAGUUCUACAGUCCGACGAUCCCAGAUUUUCUUUUGUGCCUCUUGUUCUGACAGGCCAUUUUCUACCAUAGACAUAACGGUAAGAUUUGCAAUUCCAAGAGCAGCCUCUCCUGCUCCAAGGAAUAAGAUUUUGUGUUCGGACAACAGAGGAUUGAGCAUCA
B8: chr3:9412954:9412955:+_ENSG00000134077_ENST00000452837|hu_mus|hu_hu_hu_mus_False|8_68 (ssRNA)
RNA: GGGAGUUCUACAGUCCGACGAUCGGUUGAUAUCUCUUCUUUGAUGGCUGGAUUUUCAUAAUAGUCCAAGAUAUGAGAAUCUGAAGUGCUGCUGGCAUGCUUUUUCUUACCAUCUUUCUCAUCUGCUUUGACUUCUUGUCCACACAACAGAGGAUUGAGCAUCA
B9: chr9:95013113:95013114:-_ENSG00000196305_ENST00000443024|hu_mus|FALSE|FALSE (ssRNA)
RNA: GGGAGUUCUACAGUCCGACGAUCCUCAGUCAGAAAGGGCGUGUAAGGGGCCAUCAGUCUGCACAGAGAAAGCAGGACACUGAACAGUGUCUCCAGAGCCAUGACACAGUCUUCCACCCCACUCUCACCCUUUAACCUCCUCCUCAACAGAGGAUUGAGCAUCA
B10: 137848527_137849260_819_CDS_ENSG00000120705_ENST00000360541|human|control|control (ssRNA)
RNA: GGGAGUUCUACAGUCCGACGAUCCACUUUGUCCCCAGAAAUAAACAGCUGCACAGCAGUCUCUGCUACUUUCCGAACAUAGUUAUGUCGCUUUUCCAUUCUUAAACGGGCAAAACGCAAGGCUGACUGACCUCCUCUACCGUGCAACAGAGGAUUGAGCAUCA
B11: chrX:20185780:20185781:-_ENSG00000177189_ENST00000379565|hu_mus|motif|central (ssRNA)
RNA: GGGAGUUCUACAGUCCGACGAUCUUUGGUUAUAGUAAACAGGACAGCGCUGGCCUCUCGCUCUGAGAAAAACUUCUGUCGGAGAAUCUUAUCCAGCAAUUCACCUCCUUUCAUAAGUUCUGUUACUACAUACACAUAUUUUCCCAACAGAGGAUUGAGCAUCA
B12: chr1:163112212:163112213:-_ENSG00000143248_ENST00000313961|hu_hu|hu_hu_hu_mus_False|8_88 (ssRNA)
RNA: GGGAGUUCUACAGUCCGACGAUCUUUUAUUAUCAGUAAGAGUGAGUCACAUAGUACGCAAAGUAUUGGAUACAAUAAUCAGGAAACAAACACUAUUGGUCCAGAAUUUAAAACUUUAUGAGCGAAGGCUUACAAAUGGACUUACAACAGAGGAUUGAGCAUCA
B13: chr3:10015032:10015033:+_ENSMUSG00000027533_ENSMUST00000029046|mus_mus|mus_mus_mus_hu_True|88_98 (ssRNA)
RNA: GGGAGUUCUACAGUCCGACGAUCGUUUUUACCAUCACACGUAAUGAUACAGUCUGGCUUGGCCAUUGCGCCCAUUUUUCGCAAAGCUAUUCCCACUCCUAGCUCCUUCAUGUAUUCAUCAAAGCCUUUGCUGUCCACCAGGCGCAACAGAGGAUUGAGCAUCA
B14: chr5:37516192:37516193:+_ENSMUSG00000063646_ENSMUST00000043794|mus_mus|motif|central (ssRNA)
RNA: GGGAGUUCUACAGUCCGACGAUCUCCGUUUGAGAGCUUACAACAGAUAGAGUCUCUUACUUCGAGUUCUAGCACUCUGAAUUCGGACAGCUCGUUCUGGUCCUUGGCGUCUUGCAUUUCGCUCUUUAGCUGGUUCUCCUCCAUCAACAGAGGAUUGAGCAUCA

In this assay the target is T1, UNK ZnF1-3. Put plainly: nsRBNS (natural sequence RNA bind-n-seq); RBNS binding buffer (assumed for nsRBNS): 25 mM Tris pH 7.5, 150 mM KCl, 3 mM MgCl2, 0.01% Triton X-100, 500 ug/ml BSA, 20 U/ml SUPERase-In, 4 C; UNK is unkempt and MSI1 is Musashi-1; names of the RNAs are library labels; protein concentration not given here; high values mean tight binding.
B1 gave a binding signal of 1.41 enrichment R.
The molecule B2 registered a binding signal of 1.16 enrichment R.
On to B3, for which the binding signal was determined as 1.01 enrichment R.
In turn, B4 had a binding signal of 0.756 enrichment R.
In the case of B5, the binding signal turned out to be 0.531 enrichment R.
Consider B6, for which the binding signal was found to be 1.2 enrichment R.
Molecule B7 came in with a binding signal of 0.583 enrichment R.
The result for B8 reads 0.371 enrichment R; that for B9, 1.3 enrichment R.
The result for B10 reads 0.992 enrichment R.
As for B11, the binding signal turned out to be 0.794 enrichment R.
As to B12, the binding signal was 1.28 enrichment R.
B13 registered a binding signal of 0.686 enrichment R.
B14 yielded a binding signal of 0.495 enrichment R.
